Laboratory results: PMC4081100
The list shows a part of the results, in another mix than the full data. For some assays here: At the low end of the ranking the order means little. This is one part of the list. For some assays here: The exact form of the protein is not confirmed.

What was measured:
Assay in all cases: universal protein binding microarray (PBM)
Conditions in all cases: transcription factors of Arabidopsis thaliana; high values mean tight binding; most listed sequences are background and not binding sites; double strand, one strand shown
GST-ANAC092(1-176) = target: T1, GST-ANAC092(1-176) (UniProt Q9FKA0)
T1 sequence: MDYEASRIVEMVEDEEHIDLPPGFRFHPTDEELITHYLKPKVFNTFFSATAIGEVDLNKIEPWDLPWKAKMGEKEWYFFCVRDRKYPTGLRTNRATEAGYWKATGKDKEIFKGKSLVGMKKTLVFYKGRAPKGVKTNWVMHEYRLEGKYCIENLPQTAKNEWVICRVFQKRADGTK

GST-NTL6(1-168) = GST-NTL6(1-168) (UniProt Q9SCK6)
GST-ANAC019 NAC domain = target: T2, GST-ANAC019 NAC domain (UniProt Q9C932)
T2 sequence: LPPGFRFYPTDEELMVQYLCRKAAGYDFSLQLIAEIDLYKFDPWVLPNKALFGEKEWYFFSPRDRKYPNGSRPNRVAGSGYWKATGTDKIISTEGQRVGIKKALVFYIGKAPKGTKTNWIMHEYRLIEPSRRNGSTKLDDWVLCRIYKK

GST-ANAC055(1-171) = target: T3, GST-ANAC055(1-171) (UniProt Q9LDY8)
T3 sequence: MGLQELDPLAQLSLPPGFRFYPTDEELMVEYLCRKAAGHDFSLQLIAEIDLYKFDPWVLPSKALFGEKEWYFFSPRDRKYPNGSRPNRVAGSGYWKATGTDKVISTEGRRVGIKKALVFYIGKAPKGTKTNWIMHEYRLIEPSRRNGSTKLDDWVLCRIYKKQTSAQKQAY

GST-ATAF1 NAC domain = target: T4, GST-ATAF1 NAC domain (UniProt Q39013)
T4 sequence: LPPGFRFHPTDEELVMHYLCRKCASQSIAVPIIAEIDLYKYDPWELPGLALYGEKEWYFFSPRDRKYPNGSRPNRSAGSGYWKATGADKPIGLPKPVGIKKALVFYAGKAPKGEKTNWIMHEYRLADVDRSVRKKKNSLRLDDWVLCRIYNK

[1] = target: T5, GST-ANAC092(1-285) full length (UniProt Q9FKA0)
T5 sequence: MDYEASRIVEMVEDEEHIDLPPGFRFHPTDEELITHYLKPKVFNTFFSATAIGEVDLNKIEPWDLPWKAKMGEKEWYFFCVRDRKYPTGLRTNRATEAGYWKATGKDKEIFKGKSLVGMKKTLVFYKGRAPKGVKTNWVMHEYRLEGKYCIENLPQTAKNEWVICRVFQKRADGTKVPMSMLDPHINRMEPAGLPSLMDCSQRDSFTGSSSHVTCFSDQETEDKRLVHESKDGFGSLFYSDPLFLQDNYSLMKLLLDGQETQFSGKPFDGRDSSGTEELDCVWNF

GST-NST2(1-184) = target: T6, GST-NST2(1-184) (UniProt Q9M274)
T6 sequence: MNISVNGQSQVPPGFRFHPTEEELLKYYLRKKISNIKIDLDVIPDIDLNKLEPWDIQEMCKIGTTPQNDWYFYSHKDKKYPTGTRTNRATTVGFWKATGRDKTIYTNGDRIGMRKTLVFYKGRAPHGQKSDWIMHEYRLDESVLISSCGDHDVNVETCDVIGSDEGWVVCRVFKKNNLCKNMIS

GST-NTL8 NAC domain = target: T7, GST-NTL8 NAC domain (UniProt Q9XIN7)
T7 sequence: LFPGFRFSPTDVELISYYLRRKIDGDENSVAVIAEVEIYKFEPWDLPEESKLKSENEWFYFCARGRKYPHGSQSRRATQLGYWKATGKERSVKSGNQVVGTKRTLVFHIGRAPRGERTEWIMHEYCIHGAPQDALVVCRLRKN

GST-SND1(1-203) = target: T8, GST-SND1(1-203) (UniProt Q9LPI7)
T8 sequence: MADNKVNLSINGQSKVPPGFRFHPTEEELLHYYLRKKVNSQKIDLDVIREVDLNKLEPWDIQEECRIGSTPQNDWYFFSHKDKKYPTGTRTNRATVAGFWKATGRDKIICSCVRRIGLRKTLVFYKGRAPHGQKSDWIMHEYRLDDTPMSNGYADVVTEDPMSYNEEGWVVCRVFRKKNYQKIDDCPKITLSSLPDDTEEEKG

GST-VND3 NAC domain = target: T9, GST-VND3 NAC domain (UniProt Q9FH59)
T9 sequence: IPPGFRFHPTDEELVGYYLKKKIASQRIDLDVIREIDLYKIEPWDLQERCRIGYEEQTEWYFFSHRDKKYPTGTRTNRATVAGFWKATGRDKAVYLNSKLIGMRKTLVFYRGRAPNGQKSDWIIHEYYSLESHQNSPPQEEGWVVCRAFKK

GST-VND7 NAC domain = target: T10, GST-VND7 NAC domain (UniProt Q9C8W9)
T10 sequence: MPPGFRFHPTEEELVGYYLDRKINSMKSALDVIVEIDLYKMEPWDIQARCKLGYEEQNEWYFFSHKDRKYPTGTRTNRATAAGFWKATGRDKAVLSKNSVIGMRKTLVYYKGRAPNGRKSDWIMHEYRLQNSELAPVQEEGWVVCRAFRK

[2] = target: T11, GST-VOZ2 (Arabidopsis thaliana) (UniProt Q9SLB9)
T11 sequence: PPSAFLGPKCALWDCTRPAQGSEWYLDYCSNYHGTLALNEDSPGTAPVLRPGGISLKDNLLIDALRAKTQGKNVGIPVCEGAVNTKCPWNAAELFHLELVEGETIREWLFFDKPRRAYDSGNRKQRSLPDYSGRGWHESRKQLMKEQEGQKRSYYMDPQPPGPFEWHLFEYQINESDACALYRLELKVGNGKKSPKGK

GST-NAP(1-166) = target: T12, GST-NAP(1-166) (UniProt O49255)
T12 sequence: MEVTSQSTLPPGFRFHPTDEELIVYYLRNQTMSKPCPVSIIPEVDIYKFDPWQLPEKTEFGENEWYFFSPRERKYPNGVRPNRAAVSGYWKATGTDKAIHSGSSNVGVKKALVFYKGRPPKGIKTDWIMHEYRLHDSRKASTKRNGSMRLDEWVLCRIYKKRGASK

Sequence of UniProt Q9SCK6 (Q9SCK6 1-168): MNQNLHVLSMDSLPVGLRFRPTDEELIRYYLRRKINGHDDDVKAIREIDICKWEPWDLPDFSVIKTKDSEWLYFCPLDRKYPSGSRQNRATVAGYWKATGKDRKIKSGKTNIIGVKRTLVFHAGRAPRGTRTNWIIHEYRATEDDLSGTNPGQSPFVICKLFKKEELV

| Sequence | binding signal (GST-ANAC092(1-176)) [E-score] | binding signal (GST-NTL6(1-168)) [E-score] | binding signal (GST-ANAC019 NAC domain) [E-score] | binding signal (GST-ANAC055(1-171)) [E-score] | binding signal (GST-ATAF1 NAC domain) [E-score] | binding signal [1] [E-score] | binding signal (GST-NST2(1-184)) [E-score] | binding signal (GST-NTL8 NAC domain) [E-score] | binding signal (GST-SND1(1-203)) [E-score] | binding signal (GST-VND3 NAC domain) [E-score] | binding signal (GST-VND7 NAC domain) [E-score] | binding signal [2] [E-score] | binding signal (GST-NAP(1-166)) [E-score] |
| --- | --- | --- | --- | --- | --- | --- | --- | --- | --- | --- | --- | --- | --- |
| AAGTCGTC | 0.00419 | -0.0295 | -0.00353 | 0.0254 | 0.0243 | -0.0176 | -0.0124 | -0.0498 | -0.085 | -0.0385 | -0.0216 | -0.142 | – |
| ATGGGTCA | -0.189 | -0.0203 | -0.172 | -0.112 | -0.108 | -0.085 | -0.0465 | -0.154 | -0.178 | -0.159 | -0.198 | 0.0407 | – |
| AGTCAGAA | 0.0246 | 0.0126 | -0.0146 | -0.00859 | 0.0283 | – | – | 0.0235 | 0.101 | -0.0781 | 0.0143 | -0.139 | – |
| AAGTCAGT | -0.0128 | 0.00135 | 0.0478 | -0.0895 | -0.0318 | -0.132 | -0.0633 | -0.0659 | 0.0862 | -0.012 | -0.0963 | -0.0638 | -0.127 |
| CCATTGAC | -0.0305 | -0.0477 | -0.0864 | -0.00537 | -0.079 | -0.026 | -0.0589 | -0.156 | -0.0201 | -0.0163 | -0.0723 | -0.0315 | -3e-05 |
| AGCGGTCA | -0.112 | -0.105 | -0.0478 | -0.15 | -0.177 | -0.143 | -0.0737 | -0.0464 | -0.175 | -0.0439 | -0.18 | -0.0895 | -0.163 |
| CGGTCCAC | -0.0598 | -0.128 | 0.00728 | -0.207 | -0.0765 | -0.0794 | -0.149 | -0.0053 | -0.0731 | -0.171 | -0.123 | 0.0769 | -0.152 |
